The results in this text go back to the supplement of paper PMC12582362.

Molecules are shown by their SMILES. Structures can show the parent of a compound that is named as a salt. Among all 1,500 compounds or so, about 30 (2%) showed activity.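 The calls were made as follows: active = robust z-score below -2; a few such results were not called.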 This is one part of the list.

The subject of this experiment is optoTopBP1 Flp-In 293 T-REx (HEK293) cells. Put plainly: light-induced TopBP1 condensate (nuclear foci) count, plate-normalised robust z-score vs non-control wells; higher = more TopBP1 condensates (negative = condensation inhibitor), active = hit call of the paper. The note with it: 10 µM; incubation time 2 h.
In the case of `O=C(O)[C@H]1/C(=C/CO)O[C@@H]2CC(=O)N21` [Clavulanate potassium salt], the “light-induced TopBP1 condensate (z-score)” value is inactive: -0.0843.

As for `O=C(OCCOCCO)c1ccccc1Nc1cccc(C(F)(F)F)c1` [Etofenamate], the “light-induced TopBP1 condensate (z-score)” value is inactive: -0.564.

`Nc1ccc(S(=O)(=O)Nc2ccccn2)cc1` [Sulfapyridine]: the “light-induced TopBP1 condensate (z-score)” value was inactive: 1.16.

Consider `Nc1ccn([C@@H]2O[C@H](CO)[C@@H](O)[C@@H]2O)c(=O)n1` [Cytarabine], for which the “light-induced TopBP1 condensate (z-score)” value was inactive: -1.9.

Consider `COc1ccnc(C[S+]([O-])c2nc3cc(OC(F)F)ccc3[nH]2)c1OC` (stereo not given) [Pantoprazole sodium], for which the “light-induced TopBP1 condensate (z-score)” value was inactive: -0.769.

For `C[C@@H]1C[C@H]2[C@@H]3C[C@H](F)C4=CC(=O)C=C[C@]4(C)[C@@]3(F)[C@@H](O)C[C@]2(C)[C@@]1(O)C(=O)COC(=O)C(C)(C)C` [Flumethasone pivalate], the “light-induced TopBP1 condensate (z-score)” value was inactive: -0.352.

For `CCOc1ccccc1OC(c1ccccc1)C1CNCCO1` (stereo not given) [Reboxetine mesylate], the “light-induced TopBP1 condensate (z-score)” value was inactive: -0.228.

For `O=c1[nH]cnc2c1ncn2[C@@H]1O[C@H](CO)[C@@H](O)[C@H]1O` [Inosine], the “light-induced TopBP1 condensate (z-score)” value was inactive: -0.394.

For the compound `CN(C)CCCN1c2ccccc2Sc2ccc(Cl)cc21` [Chlorpromazine hydrochloride], the “light-induced TopBP1 condensate (z-score)” value was inactive: 1.46.

Turning to `CC(=O)[C@H]1CC[C@H]2[C@@H]3CC=C4C[C@@H](O)CC[C@]4(C)[C@H]3CC[C@]12C` [Pregnenolone], the “light-induced TopBP1 condensate (z-score)” value is inactive: -0.358.

With `COc1ccc(CC2c3cc(OC)c(OC)cc3CC[N+]2(C)CCC(=O)OCCCCCOC(=O)CC[N+]2(C)CCc3cc(OC)c(OC)cc3C2Cc2ccc(OC)c(OC)c2)cc1OC` (stereo not given) [Atracurium besylate], the “light-induced TopBP1 condensate (z-score)” value is inactive: -0.907.

Turning to `CC(C(=O)O)c1ccc2c(c1)CC(=O)c1ccccc1S2` (stereo not given) [Zaltoprofen], the “light-induced TopBP1 condensate (z-score)” value was inactive: -0.369.

Consider `CCN(CCO)CCCC(C)Nc1ccnc2cc(Cl)ccc12` (stereo not given) [Hydroxychloroquine sulfate], for which the “light-induced TopBP1 condensate (z-score)” value is inactive: -1.68.

As for `CCOC(=O)NNc1nncc2ccccc12` [Todralazine hydrochloride], the “light-induced TopBP1 condensate (z-score)” value is inactive: 0.699.

As for `CCCCN1CCCCC1C(=O)Nc1c(C)cccc1C` (stereo not given) [Bupivacaine hydrochloride], the “light-induced TopBP1 condensate (z-score)” value was inactive: -1.34.

Consider `CC(COc1ccccc1)NC(C)C(O)c1ccc(O)cc1` (stereo not given) [Isoxsuprine hydrochloride], for which the “light-induced TopBP1 condensate (z-score)” value is inactive: -0.14.

Take `COc1cc(NC(C)CCCN)c2ncccc2c1` (stereo not given) [Primaquine diphosphate]: the “light-induced TopBP1 condensate (z-score)” value was inactive: -1.07.

In the case of `CCCCC1(COC(=O)CCC(=O)O)C(=O)N(c2ccccc2)N(c2ccccc2)C1=O` [Suxibuzone], the “light-induced TopBP1 condensate (z-score)” value is inactive: 0.837.

As to `CCCCNc1c(C(=O)OCC)c(C)nc2c1cnn2CC` [Tracazolate hydrochloride], the “light-induced TopBP1 condensate (z-score)” value was inactive: 0.939.

On to `COc1cc(-c2ccc(=O)[nH]n2)ccc1OC(F)F` [Zardaverine], for which the “light-induced TopBP1 condensate (z-score)” value was inactive: 1.3.

As to `CC/C(=C(/CC)c1ccc(O)cc1)c1ccc(O)cc1` [Diethylstilbestrol], the “light-induced TopBP1 condensate (z-score)” value is inactive: -0.692.

With `CC1=C(/C=C/C(C)=C/C=C/C(C)=C\C(=O)O)C(C)(C)CCC1` [Isotretinoin], the “light-induced TopBP1 condensate (z-score)” value was inactive: -1.24.

On to `CSc1ccc2c(c1)N(CCC1CCCCN1C)c1ccccc1S2` (stereo not given) [Thioridazine hydrochloride], for which the “light-induced TopBP1 condensate (z-score)” value is inactive: -0.811.

Turning to `Cc1cc(-c2ccccc2)nnc1NCCN1CCOCC1` [Minaprine dihydrochloride], the “light-induced TopBP1 condensate (z-score)” value was inactive: 0.767.

As to `NC(N)=Nc1nc(CSCC/C(N)=N/S(N)(=O)=O)cs1` [Famotidine], the “light-induced TopBP1 condensate (z-score)” value is inactive: 0.697.

Regarding `CN(C)[C@@H]1C(O)=C(C(N)=O)C(=O)[C@@]2(O)C(O)=C3C(=O)c4c(O)cccc4[C@@](C)(O)[C@H]3[C@H](O)[C@@H]12` [Oxytetracycline dihydrate], the “light-induced TopBP1 condensate (z-score)” value was inactive: -0.703.

Take `Cc1cc(NS(=O)(=O)c2ccc(N)cc2)nc(C)n1` [Sulfisomidine]: the “light-induced TopBP1 condensate (z-score)” value was inactive: -0.583.

Turning to `Cc1ccsc1/C=C/C1=NCCCN1C` [Morantel tartrate], the “light-induced TopBP1 condensate (z-score)” value is inactive: 0.144.

Take `CN(C)c1ccc(O)c2c1C[C@H]1C[C@H]3[C@H](N(C)C)C(O)=C(C(N)=O)C(=O)[C@@]3(O)C(O)=C1C2=O` [Minocycline hydrochloride]: the “light-induced TopBP1 condensate (z-score)” value was inactive: -0.51.

In the case of `CCCSS/C(CCO)=C(/C)N(C=O)Cc1cnc(C)nc1N` [Prosultiamine], the “light-induced TopBP1 condensate (z-score)” value was inactive: -0.237.

Turning to `Nc1nc(NC2CC2)c2ncn([C@H]3C=C[C@@H](CO)C3)c2n1` [Abacavir Sulfate], the “light-induced TopBP1 condensate (z-score)” value was inactive: -0.798.

With `CCN(CC)CCNc1ccc(CO)c2sc3ccccc3c(=O)c12` [Hycanthone], the “light-induced TopBP1 condensate (z-score)” value is inactive: -0.598.

For the compound `CCOc1ccc2nc3cc(N)ccc3c(N)c2c1` [Ethacridine lactate], the “light-induced TopBP1 condensate (z-score)” value was inactive: 0.0605.

For the compound `CNC(C)CCC=C(C)C` (stereo not given) [Isometheptene mucate], the “light-induced TopBP1 condensate (z-score)” value was inactive: 0.384.

As to `O=C(COc1ccc(Cl)cc1)N1CCN(Cc2ccc3c(c2)OCO3)CC1` [Fipexide hydrochloride], the “light-induced TopBP1 condensate (z-score)” value was inactive: -0.019.
